# PMC12136788
# The other results are listed elsewhere or left out.
# B1: chr2:48026839:48026840:+_ENSG00000116062_ENST00000540021|hu_hu|hu_hu_hu_mus_False|48_108 (ssRNA)
# RNA: GGGAGUUCUACAGUCCGACGAUCAUAGUGUGCCACUAGCGUCCUAAAUCUGGAACAGUGGCGGUCAUCCGAAAACUGGCCGAUGAAAAACUUUCCCAGUGAAGUGUCCACAAAGCAAACACCAUACACACGAGUGUGACCAGACAACAGAGGAUUGAGCAUCA
# B2: chr12:39756943:39756944:-_ENSG00000139116_ENST00000544797|hu_mus|hu_hu_hu_mus_False|18_88 (ssRNA)
# RNA: GGGAGUUCUACAGUCCGACGAUCGGUUUGGCUGUUACCCCCAAGGGAAUCCUGUAGGAGUCUUGUCAGCUUAGAGUCUCUGUAAGGGACAUGGGUGGCUCUCUUGCUCUUGUCCCCCAAGGCACUUAUUACAUUCCCAAGAGCCAACAGAGGAUUGAGCAUCA
# B3: chr17:55917276:55917277:-_ENSG00000181610_ENST00000313608|hu_hu|FALSE|FALSE (ssRNA)
# RNA: GGGAGUUCUACAGUCCGACGAUCGUUUUCUUCCAACGCAGUCUGUGGUCUGACACUCAAGUGUUCGGAUUUCCGGGAAACGUGACUACCUCCGUGUUGAGUCCUUGCUUCGCCUACUCGUCUUAAAAUGACACCUUCUGCCAACAACAGAGGAUUGAGCAUCA
# B4: chr5:71493517:71493518:+_ENSG00000131711_ENST00000296755|hu_mus|FALSE|FALSE (ssRNA)
# RNA: GGGAGUUCUACAGUCCGACGAUCUUCCUUUAUGGGUAUGAAGCCCGUGCUUUUCUCUUCCUGUUUGUCUUGGUAAAGACCAGUGGAAGUCAGGUCAGAAACUGGGCUUUCUCUGUCUGGGAAGCCCUGCUUUCCAUUCUUCCCCAACAGAGGAUUGAGCAUCA
# B5: 118676944_118677064_107_3pUTR_ENSMUSG00000020114_ENSMUST00000020315|mouse|control|control (ssRNA)
# RNA: GGGAGUUCUACAGUCCGACGAUCCGGGGGGGAGGUAGGGGAGGCCGAGAGUGAGUGACGGGGACGGCCUAACGACGGCGCUGCUCGCGGGGCGCCGAGCUCAUGGGCGGCGGGACGGACGGCUUGGGCCUCGCCGGGAAGCCACAACAGAGGAUUGAGCAUCA
# B6: chr3:148802587:148802588:-_ENSG00000071794_ENST00000310053|hu_mus|hu_hu_hu_mus_False|8_58 (ssRNA)
# RNA: GGGAGUUCUACAGUCCGACGAUCUCCAACAACUUGUCCUCUCAUAGUUCCAAAUAAAACCAAAUCUUGCUCUUCAUCACUAGUUAGGAAGUCAUCUGGAGGAAUAAUGUCUUGGAAUUCAAAAUGUGGAAAGAAAGUUGAGUACAACAGAGGAUUGAGCAUCA
# B7: 138048383_138048959_989_CDS_ENSMUSG00000040268_ENSMUST00000120441|mouse|control|control (ssRNA)
# RNA: GGGAGUUCUACAGUCCGACGAUCGAAAGUCCGAGAUGUCGUCACGAUUUCAAACAGGUUGUCCCUCAUCAUUAUGUCACUCUGUUUGCACUCCUGGACUUUGUGCACUUCUUUAAGUGGUAUCACCCGCAGAGGUUCCUUCUCCAACAGAGGAUUGAGCAUCA
# B8: 110301011_110306659_465_3pUTR_ENSG00000137714_ENST00000260270|human|control|control (ssRNA)
# RNA: GGGAGUUCUACAGUCCGACGAUCUUUUCAACCACAACAUCUAGCAGAGAAUCACCAACUUUUCCUUUGGUUGUUAAUGUUUCACCAUCACGGUUUAUAAAGUGGACUGUUAUUUUAUCUUCUGAGCUGCUCCGGGCCCGCGCCCAACAGAGGAUUGAGCAUCA
# B9: chr2:39006174:39006175:+_ENSG00000152147_ENST00000409566|hu_mus|motif|central (ssRNA)
# RNA: GGGAGUUCUACAGUCCGACGAUCUACUCCUUCUCACAGGCUAUCACUCUCACUUCUUUAUAAACGUAAUCUUCCCAUUCGGAGGGGCUUUUCUUCAUCCAUUCGCUCAUGGUUACCAGUUGCCCAGAUUCUUUCUAGAUGACUCAACAGAGGAUUGAGCAUCA
# B10: 29580787_29581120_1290_CDS_ENSMUSG00000010721_ENSMUST00000055195|mouse|control|control (ssRNA)
# RNA: GGGAGUUCUACAGUCCGACGAUCCAUAGUUGUGUCAUCCUUCUUGGGUGUAAAGUUUCCAAAAAAUCUGAGGCUAUAGAAACCAACAACAGAAGACACCAUGAGAUAGAAAAUCAGAAUGAUUUCAAGUGCAGCUCCCACAAACAACAGAGGAUUGAGCAUCA
# B11: chr7:65705844:65705845:+_ENSG00000169902_ENST00000304842|hu_mus|hu_hu_hu_mus_False|18_78 (ssRNA)
# RNA: GGGAGUUCUACAGUCCGACGAUCAAACGGAUCUUUGUUACAUAAAUAAGGUGCCGGCUCCCCAUGCUUAACAAUGACCUCCAGAAGGAAGGCUUGCAUGGCAGAAUCUAGCACUUCAUCAGUAACACCCGCCUCAUCCAAGCGCAACAGAGGAUUGAGCAUCA
# B12: chr1:109605286:109605287:-_ENSG00000197780_ENST00000461096|hu_mus|hu_hu_hu_mus_True|1_108 (ssRNA)
# RNA: GGGAGUUCUACAGUCCGACGAUCAAGAACAAUAACAACAUUCAGUAACCUCUUUAAAUGCAAUUAUCCUUAUUAUAAGCUAAGCAGAAUAAUAAUUUAAUACCGUAAGUGAACUACACACAAAGCCUGAACCGCGAAACUACACAACAGAGGAUUGAGCAUCA
# B13: chr4:84185219:84185220:-_ENSG00000173085_ENST00000439031|hu_hu|FALSE|FALSE (ssRNA)
# RNA: GGGAGUUCUACAGUCCGACGAUCUCUGUGACAAGGGGGAAUUUUGCUAGCAAAUAAGUAAAAUCCAGGUAAAUAUGCUCUAAAUCUUCAUCUUCAGGUUCUUAAUUCUUUAACAUAUUGUAUCAGAUUUUGUAUUCAAAUCUACAACAGAGGAUUGAGCAUCA
# B14: chr2:122217683:122217684:-_ENSG00000074054_ENST00000409078|hu_hu|FALSE|FALSE (ssRNA)
# RNA: GGGAGUUCUACAGUCCGACGAUCACGCAAAUGUUGAAAGAAGUUAUCAUACUCAGCAGCACCAGCCAAAAGUAAAGAUCUAAUCUUUUUUAGAGCAUUUACUCUCUGCUCCCAAUCAUGCUUGUCAUCAGAUAAUAUUUCCCUCAACAGAGGAUUGAGCAUCA
# Target: T1, UNK ZnF1-3 (human, UniProt Q9C0B0 31-174)
# T1 sequence: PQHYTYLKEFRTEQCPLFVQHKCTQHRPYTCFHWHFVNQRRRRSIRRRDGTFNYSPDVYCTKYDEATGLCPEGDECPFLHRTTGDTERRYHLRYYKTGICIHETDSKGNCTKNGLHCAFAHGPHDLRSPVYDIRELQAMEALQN
# Experiment: nsRBNS (natural sequence RNA bind-n-seq); RBNS binding buffer (assumed for nsRBNS): 25 mM Tris pH 7.5, 150 mM KCl, 3 mM MgCl2, 0.01% Triton X-100, 500 ug/ml BSA, 20 U/ml SUPERase-In, 4 C; UNK is unkempt and MSI1 is Musashi-1; names of the RNAs are library labels; protein concentration not given here; high values mean tight binding
row,Binder,binding signal [enrichment R]
1,B1,1.06
2,B2,0.729
3,B3,0.623
4,B4,0.463
5,B5,1.24
6,B6,1.27
7,B7,0.613
8,B8,0.761
9,B9,0.691
10,B10,1.23
11,B11,0.255
12,B12,0.836
13,B13,0.734
14,B14,1.23
